# Earlier results as cited in patent US5616566A, “Method of inhibiting HIV replication with 2',3'-dideoxyadenosine” (The United States of America as represented by the …, priority 1993, dated 1997).
# Tested on: Herpes simplex type I DNA polymerase
# Conditions: cited from earlier work
compound,measurement,value
"Cc1cn([C@H]2CC[C@@H](CO)O2)c(=O)[nH]c1=O [2',3'-dideoxythymidine]",resistance of Herpes simplex type I DNA polymerase,"as resistant to 2',3'-dideoxythymidine as cellular DNA polymerase alpha"
